# Measured values taken from PubChem BioAssay AID686978 (National Center for Advancing Translational Sciences (NCATS), 2013).
# Several values for one entry are separate records, joined by “and”; a condition that tells them apart may be missing. Equal entries are not always repeated. Hit rate of the full screen: of about 420,000 compounds, about 64,000 (15%) were called active. Inconclusive means that the source gave no clear call. Such entries were picked first, then a sample of the others. Calls come from the whole dose curve; as a rule, active = well fitted inhibition curve with a large enough effect; inconclusive = small, poorly fitted or top-dose-only effect; inactive = flat fitted curve, though single readings scatter. Potencies of inconclusive entries are doubtful fits and often do not repeat.
# Assay: qHTS for Inhibitors of human tyrosyl-DNA phosphodiesterase 1 (TDP1): qHTS in cells in absence of CPT; note: nearly all actives have a fitted effect of over 55% in size
# Conditions: DT40 Tdp1-/- hTDP1 cells, no CPT, ATP luminescence, 48 h; activity change, negative = growth inhibition: at 46.2 µM (top of the series)
# Outline: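 Chicken DT40 Tdp1-/- cells complemented with human TDP1, screened without camptothecin (DMSO vehicle only), 400 cells/well. Compounds pin-transferred, cells incubated at 37 °C for at least 48 hr. Growth read as ATP-dependent luminescence (CellTiter-Glo, 30 min at RT).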
# % is set by controls: 0 for no effect and ±100 for the full control effect; potency is the fitted concentration of half-maximal effect; tags give direction and shape of the fitted curve.
Structure (SMILES),Potency,"activity change, negative = growth inhibition"
COC(=O)c1ccc(COc2ccccc2/C=C/C(=O)c2ccc(OCC(=O)O)cc2)cc1,"inconclusive: 20.6 µM [inhibitor, single point]",
Cc1cccc(NS(=O)(=O)c2ccc3c(c2)oc(=O)n3C)c1C,"inconclusive: 23.1 µM [inhibitor, partial curve]",
N#CC/C(N)=N/Nc1nc2ccccc2nc1Cc1ccccc1,inactive,
Cc1cccc(NC(=O)CSc2nc(COc3ccccc3)nc3ccccc23)c1C,"inconclusive: 18.4 µM [inhibitor, single point]",
OCCC1CN(Cc2cccn2-c2nccs2)CCN1Cc1ccccc1 (centres undefined),inactive,
O=C(O)CCCNS(=O)(=O)/C=C/c1ccccc1,inactive,
O=C(NC1CCCC1)C1CCN(C(=O)c2cc(Cl)ccc2Cl)CC1,inactive,
O=C(Nc1cc(S(=O)(=O)N2CCCCC2)ccc1O)c1ccccc1NS(=O)(=O)c1ccc(F)cc1,inactive,
COc1ccc(NC2=CC(=O)N(C)C2=O)cc1,inactive,
CCc1ccccc1Nc1nc(N)nc(COC(=O)c2c(C)noc2C)n1,inactive,
Cc1ccccc1-c1ncnn1-c1sc2c(c1C#N)CCCCC2,inactive,
COc1ccc(-c2cc(C(=O)OCC(=O)c3ccc(C)cc3)c3cccc(Cl)c3n2)cc1,"inconclusive: 5.8 µM [inhibitor, full curve]",
COc1ccc(CN2C(=O)C(Cc3ccccc3)Nc3ncnc(N4CCOCC4)c32)cc1 (centres undefined),"inconclusive: 29.1 µM [inhibitor, single point] and inconclusive: 16.4 µM [inhibitor, single point]",
COCc1cc(CN2CCCC2)c(O)c2ncccc12,active: 0.82 µM,
N#Cc1cnn2c1nc(N1CCCCC1)c1ccccc12,"inconclusive: 29.1 µM [inhibitor, single point]",
Cc1cccc(Cn2c(O)c(N=NC(=S)Nc3ccccc3F)c3ccccc32)c1,active: 7.31 µM,
CCN1CCN(c2ccc(Cl)cc2NC(=O)c2ccco2)CC1,,inconclusive: -35.2% [inhibitor]
COc1ccccc1CN(C)CC(=O)NC1CCCc2ccccc21 (centres undefined),"inconclusive: 20.6 µM [inhibitor, single point]",
CC(C)Oc1ccc(CC(=O)NNC(=S)Nc2ccc(Br)cc2)cc1,"inconclusive: 29.1 µM [inhibitor, single point]",
CN(C)C(CNC(=O)C1CCN(S(=O)(=O)c2cccc(Cl)c2Cl)CC1)c1ccccc1 (centres undefined),"inconclusive: 25.9 µM [inhibitor, single point]",
COc1cc(CNCc2ccc(OC)c3ccccc23)cc(OC)c1OC,active: 11.6 µM,
Cc1ccc(/C=N/N2CCN(Cc3cccc4ccccc34)CC2)s1,,inconclusive: -31.7% [inhibitor]
CN(C)S(=O)(=O)c1cccc(NC(=O)COC(=O)/C=C/c2cccs2)c1,inactive,
O=C(Nc1cccc(Cl)c1)N1CCOCC1,inactive,
O=C(NC(=S)N1CCN(c2ccccc2)CC1)c1ccco1,"inconclusive: 29.1 µM [inhibitor, single point]",

Structure (SMILES),Potency,"activity change, negative = growth inhibition"
Cc1cc(Cl)cc(C)c1OCCNCc1ccccc1,active: 20.6 µM,
COc1cc(C2/C(=C(\O)c3ccc4c(c3)OCCO4)C(=O)C(=O)N2c2nnc(C)s2)cc(OC)c1OC (centres undefined),inactive,
CCOCCn1ccc2c(OCC(=O)Nc3ccccc3OC)cccc2c1=O,"inconclusive: 29.1 µM [inhibitor, single point]",
CC(C)(C)C(=O)/C=c1\s/c(=C\c2ccc(-c3ccc([N+](=O)[O-])cc3)o2)c(=O)n1CC(=O)NC(N)=O,active: 23.1 µM,
COc1ccc(-c2nc(=N)sn2-c2ccccc2)cc1,"inconclusive: 35.5 µM [inhibitor, single point]",
CCN(C(=O)CSc1nnc(Cc2ccccc2F)n1N)C1CCS(=O)(=O)C1 (centres undefined),inactive,
Cc1cc(N2C(=O)C3C4C=CC(C4)C3C2=O)ccc1NC(=O)c1cccs1 (centres undefined),,inconclusive: -28.5% [inhibitor]
Clc1nssc1=Nc1nncs1,active: 7.31 µM,
COc1c(OC(C)=O)ccc(/C=C/c2ccc3ccccc3n2)c1[N+](=O)[O-],"inconclusive: 29.1 µM [inhibitor, single point]",
c1ccc(-c2c[n+]3c(n2-c2ccccc2)SCC3)cc1,active: 20.6 µM,
CC(C)CCC1(CCNC(C)c2cccs2)CCOC(C)(C)C1 (centres undefined),"inconclusive: 29.1 µM [inhibitor, single point]",
COc1cc(/C=N/NC(=O)c2cccnc2)ccc1OS(=O)(=O)c1ccc(F)cc1,active: 20.6 µM,
O=C(Nc1ccncc1)c1ccc2c(c1)C(=O)N(C1CCCCC1)C2=O,active: 23.1 µM,
O=C(OCC(=O)N(CCc1ccccc1)Cc1ccccc1)c1cccc(O)c1,inactive,
O=C(C1CCC1)N1CCc2cc(S(=O)(=O)NCCN3CCN(c4ccccc4F)CC3)ccc21,active: 23.1 µM,
Cc1sc2c(c1C)c(=O)n(CCc1ccccc1)c(=O)n2Cc1cccc(F)c1,active: 5.8 µM,
CC(=O)/C(=C/N(C)C)C(=O)Nc1ccc(Cl)cc1Cl,"inconclusive: 29.1 µM [inhibitor, single point]",
O=C(COc1ccccc1Cc1ccccc1)NCCCN1CCOCC1,"inconclusive: 11.6 µM [inhibitor, partial curve]",
Cc1cccc(-c2ccc3c(c2)C2CC3CCN2Cc2ccc3c(c2)OCO3)c1 (centres undefined),"inconclusive: 29.1 µM [inhibitor, single point]",
CN1c2ccccc2C(O)=C(C(=S)Nc2ccc(F)c(Cl)c2)S1(=O)=O,active: 18.4 µM,
COc1ccc(S(=O)(=O)NC(C)C(=O)N2CCCCCC2)cc1 (centres undefined),inactive,
Cn1c(=O)c(C(=O)COc2ccc(C#N)cc2)c(N)n(Cc2ccccc2)c1=O,"inconclusive: 20.6 µM [inhibitor, partial curve]",
COc1cccc(NC(=S)N(CCCN2CCC(C)CC2)Cc2cccs2)c1,"inconclusive: 29.1 µM [inhibitor, single point]",
Cc1[nH]c(-c2ccc(F)cc2)cc1C(=O)N1CCN(c2ccc(Cl)cc2)CC1,"inconclusive: 20.6 µM [inhibitor, single point]",
